Variants at the background level are over-represented here.
B1: TPR 5TU (parent)
chain: GGAUCUUCUCGAUCUAACAAAAAAGACAAAUCUGCCACAAAGCUUGAGAGCAUCUUCGGAUGCAGAGGCGGCAGCCUUCGGUGGCGCGAUAGCGCCAACGUUCUCAACUAUGACACGCAAAACGCGUGCUCCGUUGAAUGGAGUUUAUCAUG

Variants of: B1
Test: polymerase ribozyme fitness, log enrichment relative to wild type (log ratio); higher = more active; in vitro selection for triplet polymerase activity
Procedure, shortened: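 Libraries of mutants in each subunit of a heterodimeric triplet polymerase ribozyme were generated by PCR and transcribed. In triplicate, each went through one in vitro selection round: annealing with biotinylated primer, partner subunit and triplets; frozen incubation at −7 °C; gel excision of extended constructs; streptavidin-bead capture; RT-PCR. Fitness, taken from Illumina sequencing of input and output libraries, is the logarithm of a genotype's enrichment over wild-type enrichment, averaged across replicates with inverse-variance weights. The logarithm is base 2, and genotypes needed ≥10 input reads and ≥1 read per output to be kept.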

Row | Variant | polymerase ribozyme fitness (log ratio)
1 | GGAUCUUCUCGAUCUAACAAAAUAGACAAAUCUGCCACAAAGCUUGAGAGCAUCUUCGGAUGCAGAGGCGGCAGGCUUCGGUGGCUCGAUAGCGCCAACGUUCUCAACUAUGACACGCAAAACGCGUGCUCCGUUGAAUGGAGUUUAUCAUG [A23U C75G G86U] | ≤ -4.2
2 | GGAUCUUCUCGAUCUAACAAAAUAGACAAAUCUGCCACAAAGCUUGAGAGCAUCUUCGGAUGCAGAGGCGGCAGUCUUCGGUGUCGCGAUAGCGCCAAAGUUCUCAACUAUGACACGCAAAACGCGUGCUCCGUUGAAUGGAGUUUAUCAUG [A23U C75U G84U C99A] | ≤ -4.2
3 | GGAUCUUCUCGAUCUAACAAAAUAGACAAAUCUGCCACAAAGCUUGAGAGCAUCUUCGGAUGCAGAGGCGGCAGCGUUCUGUGGCGCAAUAGCGCUAACGUUCUCAACUAUGACACGCAAAACGCGUGCUCCGUCGAAUGGAGUUUAUCAUG [A23U C76G G80U G88A C96U U135C] | ≤ -4.2
4 | GGAUCUUCUCGAUCUAACAAAAUAGACAAAUCUGCCACAAAGCUUGAGAGCAUCUUCGGAUGCAGAGGCGGCAGCGUUCGGUGGCUCGAUAGCGCCAACGUUCUCAACGAUGACACGCAAAACGCGUGCUCCGUUGAAUGGAGUUUAUCGUG [A23U C76G G86U U109G A150G] | ≤ -4.2
5 | GGAUCUUCUCGAUCUAACAAAAUAGACAAAUCUGCCACAAAGCUUGAGAGCAUCUUCGGAUGCAGAGGCGGCAGCCUUUGGUGGCGCGAUAGCGCUAAAGUUCUCAACUAUGACUCGCAAAACGCGUGCUCCGUUGAAUGGAGUUUAUCAUG [A23U C79U C96U C99A A115U] | ≤ -4.2
6 | GGAUCUUCUCGAUCUAACAAAAUAGACAAAUCUGCCACAAAGCUUGAGAGCAUCUUCGGAUGCAGAGGCGGCAGCCUUUGCUAGCGCGAUAGUGCCAACGUUCUCAACUAUGACACGCAAAACGCGUGCUCCGUGGAAUGGAGUUUAUCAUG [A23U C79U G81C G83A C93U U135G] | ≤ -4.2
7 | GGAUCUUCUCGAUCUAACAAAAUAGACAAAUCUGCCACAAAGCUUGAGAGCAUCUUCGGAUGCAGAGGCGGCAGCCUUCGGUGGGGCGAUAGCGCCAACGUUCUCAACUAUGACACGCAAAACGCGUGCUCCGUUGAAUGGAGUUUAUCAUG [A23U C85G] | ≤ -4.2
8 | GGAUCUUCUCGAUCUAACAAAAUAGACAAAUCUGCCACAAAGCUUGAGAGCAUCUUCGGAUGCAGAGGCGGCAGCCUUCGGUGGUGCGAUAGCGCGAACGUUCUUAGCUAUGACACGCAAAACGCGUGCUCCGUUGAAUGGAGUUUAUCAUG [A23U C85U C96G C105U A107G] | ≤ -4.2
9 | GGAUCUUCUCGAUCUAACAAAAUAGACAAAUCUGCCACAAAGCUUGAGAGCAUCUUCGGAUGCAGAGGCGGCAGCCUUCGGUGGCGGGAUGGCGCCAACGUUCUCAACUAUGACACGCAAAACGCGUGCUCCGUUGAAUGGAGUUUAUCAUG [A23U C87G A91G] | ≤ -4.2
10 | GGAUCUUCUCGAUCUAACAAAAUAGACAAAUCUGCCACAAAGCUUGAGAGCAUCUUCGGAUGCAGAGGCGGCAGCCUUCGGUGGCGGGAUAGCGCCAACGUUCUCAACUAUGACACGCAAAACGUGUGCUCCGUUGAAUGGAAUUUAUCAUG [A23U C87G C125U G143A] | ≤ -4.2
11 | GGAUCUUCUCGAUCUAACAAAAUAGACAAAUCUGCCACAAAGCUUGAGAGCAUCUUCGGAUGCAGAGGCGGCAGCCUUCGGUGGCGUGAUAGCGCCAACGUUCUCAACUAUGACACGCAAAACGCGUGCUCCGUUGAAUGGAGUUUAUCAUG [A23U C87U] | ≤ -4.2
12 | GGAUCUUCUCGAUCUAACAAAAUAGACAAAUCUGCCACAAAGCUUGAGAGCAUCUUCGGAUGCAGAGGCGGCAGCCUUCGGUGGCGUGAUAGCGCCAACGUUCUCAACUAUGACACGCAAAACGCGUGCUCCGUUGAAUGGAGUGUAUCAUG [A23U C87U U145G] | ≤ -4.2
13 | GGAUCUUCUCGAUCUAACAAAAUAGACAAAUCUGCCACAAAGCUUGAGAGCAUCUUCGGAUGCAGAGGCGGCAGCCUUCGGUGGCGCGAUAGAGCCAACGUUCUCAACUAUGACACGCAAAACGCGUGCUCCGUUGAAUGGAGUUUAUCAUG [A23U C93A] | ≤ -4.2
14 | GGAUCUUCUCGAUCUAACAAAAUAGACAAAUCUGCCACAAAGCUUGAGAGCAUCUUCGGAUGCAGAGGCGGCAGCCUUCGGUGGCGCGAUAGAGCCAACGUUCUCAACUAUGACACGCAAAACGCGUGCUCCGUCGAAUGGAGUUUAUCAUG [A23U C93A U135C] | ≤ -4.2
15 | GGAUCUUCUCGAUCUAACAAAAUAGACAAAUCUGCCACAAAGCUUGAGAGCAUCUUCGGAUGCAGAGGCGGCAGCCUUCGGUGGCGCGAUAGCGCCAAUGUUCUCAACUAUGACACGCAAAACGCGUGCUCCGUUGAAUGGAGUUUAUCAUG [A23U C99U] | -3.84
16 | GGAUCUUCUCGAUCUAACAAAAUAGACAAAUCUGCCACAAAGCUUGAGAGCAUCUUCGGAUGCAGAGGCGGCAGCCUUCGGUGGCGCGAUAGCGCCAACGUUCUCAAAUAUGACACGCAAAACGCGUGCUCCGUUGAAUGGACUUUAUCAUG [A23U C108A G143C] | ≤ -4.2
17 | GGAUCUUCUCGAUCUAACAAAAUAGACAAAUCUGCCACAAAGCUUGAGAGCAUCUUCGGAUGCAGAGGCGGCAGCCUUCGGUGGCGCGAUAGCGCCAACGUUCUCAACUAUGACACGCAAAACGAGUGCUCCGUUGAAUGGAGUUUAUCAUG [A23U C125A] | -3.51
18 | GGAUCUUCUCGAUCUAACAAAAUAGACAAAUCUGCCACAAAGCUUGAGAGCAUCUUCGGAUGCAGAGGCGGCAGCCUUCGGUGGCGCGAUAGCGCCAACGUUCUCAACUAUGACACGCAAAACGCGUGCUCCGUUGAAUGGAGUUUAUUAUG [A23U C149U] | ≤ -4.2
19 | GGAUCUUCUCGAUCUAACAAAAUAAGAAAAUCUGCCACAAAGCUUGAGCGCAUCUUCGGAUGCAGAGGCGGCAGCCUUCGUUGGCGCGCUAGCGCCACCGUUCUCAAUUAUGACACGCAAAACGCGUGCUCCGUUGAAUUGAGUUUAUCAUG [A23U G25A A26G C27A A49C G81U A89C A98C C108U G140U] | ≤ -4.2
